The least precise scores are not listed. Two further conditions of the source, in which the scores hardly spread, are not listed. Names with del lack the residues named; names with ins carry added residues between the positions named. For some of these results: The concentration of ogerin is not given here.
B1: GPR68, Q15743 (parent)
chain: MGNITADNSSMSCTIDHTIHQTLAPVVYVTVLVVGFPANCLSLYFGYLQIKARNELGVYLCNLTVADLFYICSLPFWLQYVLQHDNWSHGDLSCQVCGILLYENIYISVGFLCCISVDRYLAVAHPFRFHQFRTLKAAVGVSVVIWAKELLTSIYFLMHEEVIEDENQHRVCFEHYPIQAWQRAINYYRFLVGFLFPICLLLASYQGILRAVRRSHGTQKSRKDQIQRLVLSTVVIFLACFLPYHVLLLVRSVWEASCDFAKGVFNAYHFSLLLTSFNCVADPVLYCFVSETTHRDLARLRGACLAFLTCSRTGRAREAYPLGAPEASGKSGAQGEEPELLTKLHPAFQTPNSPGSGGFPTGRLA

How the values were obtained:
[1] = variants of: B1; test: cAMP reporter score (Enrich2 score, wild type = 0); higher = more signal; HEK293T, FACS bins
[2] = variants of: B1; test: surface expression score (Enrich2 score, wild type = 0); higher = more signal; HEK293T, FACS bins

Variant | cAMP reporter score ([1]; pH 5.5) | cAMP reporter score ([1]; pH 6) | cAMP reporter score ([1]; pH 6, modulator: ogerin) | cAMP reporter score ([1]; pH 6.5, modulator: ogerin) | surface expression score [2]
Q227C | 0.247 | 0.644 | 0.296 | 0.135 | 0.27
Q227S | 0.635 | 0.338 | 1.3 | 0.9 | 0.813
Q227K | -0.255 | 0.929 | -0.665 | 0.596 | -1.09
Q227L | 1.13 | 1.56 | 0.592 | 2.24 | 0.134
Q227V | -0.363 | -0.126 | -0.419 | -0.315 | 0.127
Q227H | 0.36 | 0.786 | 0.419 | 0.181 | 0.079
Q227W | 1.1 |  | -0.01 |  | 
Q227E | 0.162 | -0.698 | 0.039 | -0.658 | -0.717
Q227N | -0.166 | 0.575 | 0.861 | 0.138 | -0.237
Q227F | 0.366 |  | 0.899 | 1.61 | -1.13
Q227Y | 0.179 | 3.3 | 1.05 | 2.08 | -0.218
Q227R | -0.473 | -0.179 | -0.63 | -0.679 | -0.398
Q227P | -0.005 | 1.08 | -0.098 | -0.309 | -0.346
Q227A | 0.579 | -0.628 | 0.75 | 0.427 | 1.51
Q227G | 1.1 | 0.557 | 1.5 |  | 0.509
Q227M | 0.167 |  | 0.8 | 1.53 | -0.383
Q227T | 0.379 | 0.689 | 0.449 | 1.26 | 0.031
S221_R222insGS | -1.08 | -0.269 | -1.04 | -0.772 | 0.091
R214I | 0.243 |  | -0.491 |  | -0.859
R214S | 2.12 | 0.504 | 2.01 | 1.71 | 1.76
R214Q | 0.755 | 0.699 | 0.291 | 0.964 | -0.668
R214W | 0.116 | -1.01 | -0.433 | -0.532 | -0.288

Variant | cAMP reporter score ([1]; pH 5.5) | cAMP reporter score ([1]; pH 6) | cAMP reporter score ([1]; pH 6, modulator: ogerin) | cAMP reporter score ([1]; pH 6.5, modulator: ogerin) | surface expression score [2]
R214L | -0.361 | -1.63 | -0.372 | -0.417 | -0.957
R214Y | 1.05 | -0.443 | 0.575 | -0.062 | 0.443
R214T | 0.475 | -2.02 | -0.026 | -1.02 | 
R214P | -0.239 | -0.402 | -1.18 | -1.07 | 0.568
R214V | 1.13 | 0.109 | 1.29 | 0.288 | 0.388
R214N | 1.79 | 1.12 | 1.9 | 1.48 | 1.73
R214M | 0.355 | 1.06 | 0.175 | 0.4 | -0.306
D224del | -0.382 |  | -0.648 |  | 
K223_D224insGS | -0.288 |  | -1.91 |  | 2.4
G217_T218insG | -1.29 | -0.033 |  | -0.425 | 0.556
Q225V | -0.239 | -0.324 | -0.902 | -1.02 | -0.634
Q225E | -1.54 | -1.18 | -1.4 | -1.21 | -1.5
Q225G | 0.225 | -0.146 | 0.417 | -0.493 | 0.433
Q225M | -0.331 |  | -1.45 | -0.745 | -0.378
Q225I | -0.345 | -1.16 | -0.921 | -1.22 | -0.304
Q225L | -1.05 | -0.451 | -0.919 | -0.412 | -0.111
Q225S | 0.86 |  | 0.51 | 1.47 | -0.224
Q225D | 0.111 | -0.696 | -0.366 | -1.17 | -0.871
Q225N | -0.413 | -0.269 | -1.35 | -1.12 | 0.171
Q225K | 0.744 |  | 0.519 |  | 0.307
Q225H | 0.912 |  | 1.06 | -0.42 | 1.66
Q225W | 0.583 | -0.275 | 0.257 | -0.584 | -0.252

Variant | cAMP reporter score ([1]; pH 5.5) | cAMP reporter score ([1]; pH 6) | cAMP reporter score ([1]; pH 6, modulator: ogerin) | cAMP reporter score ([1]; pH 6.5, modulator: ogerin) | surface expression score [2]
Q225P | -0.455 |  | -1.32 | -2.83 | -0.231
Q225A | -0.5 |  | -0.248 |  | -0.614
Q225R | -0.313 | 0.567 | -0.221 | 1.18 | -0.089
Q225C | 0.047 | -0.477 | 0.137 | -0.271 | -0.945
Q225F | 0.819 | -0.848 | 0.488 |  | -1.48
Q225Y | 0.293 | -0.431 | 0.515 | -0.439 | -0.495
Q225T | -1.13 | 1.52 |  | 0.635 | 
T218del | -1.31 |  |  | -1.11 | 0.29
S221_R222del | -0.588 | -0.658 | -0.739 | -0.22 | 0.151
R214_H216del | -1.74 | -0.87 | -1.6 | -0.799 | -0.211
R214_S215del | -1.54 | -1.34 | -1.79 | -0.978 | -0.641
S215_G217del | -1.4 | -0.608 | -1.36 | -1.36 | -0.502
R222_K223del | -1.4 | -0.806 | -1.5 | -1.29 | -0.51
R222_K223insG | -0.696 |  |  | -0.174 | 1.54
T218_Q219del | -0.8 | -1.71 | -1.29 | -1.09 | -0.53
K220_S221insG | -0.239 | -0.903 | -1.75 | -0.313 | -0.09
S215_H216insGS | -0.718 | -1.08 | -1.28 | -1.01 | 0.242
Q227_R228insGSG | -1.6 | -1.26 | -1.52 | -0.839 | 0.399
Q219_K220del | -1.4 | -1.15 | -2.5 | -1.64 | -0.862
Q225del | -1.3 | -1.11 | -1.39 | -0.734 | 0.502
T218_Q219insGSG | -1.23 | -1.26 | -1.24 | -0.075 | 1.22

Reference: the GPR68 mutational scans of Howard et al. (2025)
